Consider 89 compounds from article PMC4336329 (PLoS ONE, 2015).

Molecules are shown by their SMILES. Screen size: about 310,000 compounds; about 2,200 (0.71%) showed an effect of 50% or more. The effect is printed as a negative number. The list shows a part of the results.

For the assay, the target named is human ether-à-go-go-related gene (hERG) potassium channel (human, UniProt Q12809). Put plainly: primary screen, population patch clamp on CHO cells stably expressing hERG.
Chain of human ether-à-go-go-related gene (hERG) potassium channel (Q12809 whole entry, looked up): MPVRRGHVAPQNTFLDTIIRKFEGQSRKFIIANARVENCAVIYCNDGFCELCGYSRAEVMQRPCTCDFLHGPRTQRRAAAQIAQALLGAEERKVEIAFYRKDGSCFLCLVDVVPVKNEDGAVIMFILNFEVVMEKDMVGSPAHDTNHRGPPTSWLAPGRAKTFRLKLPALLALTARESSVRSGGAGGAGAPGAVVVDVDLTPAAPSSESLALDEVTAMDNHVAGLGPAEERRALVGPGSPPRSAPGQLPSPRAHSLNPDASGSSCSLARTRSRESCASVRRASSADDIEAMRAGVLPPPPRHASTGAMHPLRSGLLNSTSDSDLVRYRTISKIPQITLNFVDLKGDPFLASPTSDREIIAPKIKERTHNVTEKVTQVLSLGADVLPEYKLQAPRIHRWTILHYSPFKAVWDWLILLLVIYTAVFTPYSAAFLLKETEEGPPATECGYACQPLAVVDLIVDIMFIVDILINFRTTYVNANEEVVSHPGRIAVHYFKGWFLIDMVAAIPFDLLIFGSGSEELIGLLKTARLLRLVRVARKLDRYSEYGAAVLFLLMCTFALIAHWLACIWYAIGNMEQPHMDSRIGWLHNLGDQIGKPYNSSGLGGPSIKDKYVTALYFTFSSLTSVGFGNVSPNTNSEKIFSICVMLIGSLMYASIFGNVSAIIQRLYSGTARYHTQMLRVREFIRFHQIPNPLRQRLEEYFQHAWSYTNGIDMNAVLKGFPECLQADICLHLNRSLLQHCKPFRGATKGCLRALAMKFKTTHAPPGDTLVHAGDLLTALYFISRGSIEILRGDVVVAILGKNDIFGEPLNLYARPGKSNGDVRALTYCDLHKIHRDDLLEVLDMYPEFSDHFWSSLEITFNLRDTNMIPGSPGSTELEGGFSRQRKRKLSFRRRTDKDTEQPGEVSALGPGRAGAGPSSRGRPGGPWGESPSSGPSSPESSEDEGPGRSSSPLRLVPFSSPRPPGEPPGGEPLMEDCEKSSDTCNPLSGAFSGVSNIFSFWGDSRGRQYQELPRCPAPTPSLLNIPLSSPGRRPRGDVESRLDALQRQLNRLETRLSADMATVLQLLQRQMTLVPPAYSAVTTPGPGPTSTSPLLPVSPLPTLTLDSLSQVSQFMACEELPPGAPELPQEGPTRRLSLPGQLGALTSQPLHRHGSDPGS
On to `Nn1c(SCC(=O)Nc2ccccc2F)nnc1-c1cccnc1`, for which the “hERG current change (%, negative = inhibition) at 1uM” value is listed as 23%.

Turning to `CC(=Nc1ccc(C)c(C)c1)C1=C(O)CCC1=O`, the “hERG current change (%, negative = inhibition) at 1uM” value was determined as 6.05%.

`CCOc1ccc2nc(NCCNC(=O)C3CC3)c(C)cc2c1`: the “hERG current change (%, negative = inhibition) at 1uM” value was -38.7%. Take `COc1cc(C(=O)Nc2ccc(S(=O)(=O)NC(C)C)cc2)cc(OC)c1OC`: the “hERG current change (%, negative = inhibition) at 1uM” value is listed as -7.86%. As for `CN(Cc1ccc(Cl)cc1Cl)C(=O)CCNC(=O)c1ccco1`, the “hERG current change (%, negative = inhibition) at 1uM” value was determined as 9.67%. `CCCn1nnc(NC(=O)c2cc(Br)ccc2OC)n1`: the “hERG current change (%, negative = inhibition) at 1uM” value is listed as -11.5%.

As for `Cc1cc(C)cc(SCc2noc(C(=O)NCC3CC3)c2C(=O)NCC2CC2)c1`, the “hERG current change (%, negative = inhibition) at 1uM” value was found to be 5.22%. Take `COc1ccc(S(=O)(=O)N(CC(=O)NCc2cccnc2)C2CCCCC2)cc1OC`: the “hERG current change (%, negative = inhibition) at 1uM” value is 9.37%. The figure for `Cc1ccc(/C=c2/sc3n(c2=O)CCCN=3)o1` is -1.24%; for `O=[N+]([O-])c1cccc(-c2nc(-c3cccs3)c(-c3cccs3)[nH]2)c1` it is 8.56%.

Turning to `CCCCN(C(=O)c1cc2c(s1)CCC2)c1c(N)n(CC(C)C)c(=O)[nH]c1=O`, the “hERG current change (%, negative = inhibition) at 1uM” value came out at 9.04%.

Consider `O=C1C2CCCN2C(c2cccnc2)N1c1ccc(Cl)c(Cl)c1` (centres unmarked), for which the “hERG current change (%, negative = inhibition) at 1uM” value came out at 10.4%. Consider `CN1C(=O)SC(Nc2cccc3ccccc23)C1=O` (centres unmarked), for which the “hERG current change (%, negative = inhibition) at 1uM” value came out at 3.64%. For `COCCN(C(=O)CNC(=O)c1ccco1)C(C(=O)NC1CCCCC1)c1cccs1` (centres unmarked), the “hERG current change (%, negative = inhibition) at 1uM” value was 15.7%. On to `COc1ccccc1N1CCN(/N=C\c2ccc(C)o2)CC1`, for which the “hERG current change (%, negative = inhibition) at 1uM” value is 9.09%.

Consider `COc1cc2c(cc1OC)C(C(=O)NCc1ccco1)C(c1cccs1)N(C)C2=O` (centres unmarked), for which the “hERG current change (%, negative = inhibition) at 1uM” value was 6.75%. The figure for `Cc1ccc(NC(=S)N2CCCCCC2)cc1` is 11.4%; for `CC1CCCCC1NC(=O)C1CCC(CNS(=O)(=O)c2cccc3cccnc23)CC1` (centres unmarked) it is 22.4%; for `CN(C)S(=O)(=O)c1ccc2c(c1)/C(=C/c1cc3c([nH]1)CCCC3)C(=O)N2` it is 5.89%. Regarding `CCOCCc1nnc(NC(=O)CCS(=O)(=O)c2ccccc2)s1`, the “hERG current change (%, negative = inhibition) at 1uM” value was 17.4%. In the case of `Cc1cc(Cl)c(S(=O)(=O)NCC2CCCO2)cc1OCC(N)=O` (centres unmarked), the “hERG current change (%, negative = inhibition) at 1uM” value was found to be 14.3%.

As to `CSc1ccccc1NC(=O)CCn1c(=O)oc2ccccc21`, the “hERG current change (%, negative = inhibition) at 1uM” value is given as 8.53%. Consider `N#CC1=C(N)OC2=C(CN(Cc3ccccc3)C/C2=C\c2cccnc2)C1c1cccnc1` (centres unmarked), for which the “hERG current change (%, negative = inhibition) at 1uM” value was determined as 4.49%. As for `CCN1CCC2(CC1)N=C(c1ccc(F)cc1)C(=S)N2C(=O)c1ccc(C)cc1`, the “hERG current change (%, negative = inhibition) at 1uM” value was 6.46%.

With `COc1ccc(C)c2sc(NNC(=O)COc3ccccc3)nc12`, the “hERG current change (%, negative = inhibition) at 1uM” value is given as -4.35%. On to `Clc1ccc(C(c2nnnn2C2CCCC2)N2CCN(Cc3ccncc3)CC2)cc1` (centres unmarked), for which the “hERG current change (%, negative = inhibition) at 1uM” value is -23.1%.

Take `CNC(=O)C(=O)NCC1OCCN1S(=O)(=O)c1ccc(C)cc1` (centres unmarked): the “hERG current change (%, negative = inhibition) at 1uM” value was 11.4%.

For `CC(C)c1ccc(NC(=O)COc2ccccn2)cc1`, the “hERG current change (%, negative = inhibition) at 1uM” value stood at 8.95%. For the compound `Cc1ccccc1NC(=O)c1cccc(NC(=O)CCC(=O)O)c1`, the “hERG current change (%, negative = inhibition) at 1uM” value was found to be 11%. In the case of `O=C(NCCc1ccccc1)C1CCC(=O)N(Cc2ccc(Cl)cc2)C1` (centres unmarked), the “hERG current change (%, negative = inhibition) at 1uM” value is listed as 5.85%. Consider `C=CCn1cccc(C(=O)Nc2ccc(SC)cc2)c1=O`, for which the “hERG current change (%, negative = inhibition) at 1uM” value was 9.2%. In the case of `Cn1ncc(Cl)c1C(=O)N1CCN(S(=O)(=O)c2cccs2)CC1`, the “hERG current change (%, negative = inhibition) at 1uM” value came to 7.57%.

For the compound `CCC(=O)Nc1ccc2c(c1)C(=O)c1ccccc1C2=O`, the “hERG current change (%, negative = inhibition) at 1uM” value is 1.44%. The figure for `CCOc1ccc(CN2CCN(C(=O)c3ccco3)CC2)cc1.O=C(O)C(=O)O` is 2.77%. To `O=C(CC(C(=O)O)c1ccccc1)c1cccs1` (centres unmarked) belongs 8.52%; to `COCCN(CCOC)C(=O)c1cc2sc3ccccc3c2s1`, -32%. On to `COc1ccc(CCNC(=O)c2cccnc2SC)cc1`, for which the “hERG current change (%, negative = inhibition) at 1uM” value turned out to be 7.76%.

As for `O=S(=O)(c1ccc(F)cc1)N1CCN(CC(O)COCc2cccs2)CC1` (centres unmarked), the “hERG current change (%, negative = inhibition) at 1uM” value is -5.83%. `CCNC(=O)C(=O)Nc1cc2c3c(c1)CCN3C(=O)CC2`: the “hERG current change (%, negative = inhibition) at 1uM” value is recorded as 12.2%. To `Cc1cccc(NC(=O)CCc2c(C)nn(-c3ccc(N4CCOCC4)nn3)c2C)c1` belongs 11%. `Cn1cccc1C(=O)NS(=O)(=O)c1ccccc1Cl`: the “hERG current change (%, negative = inhibition) at 1uM” value worked out at 9.04%. On to `O=C(Nc1cccc(Cl)c1)c1cc(S(=O)(=O)N2CCOCC2)cs1`, for which the “hERG current change (%, negative = inhibition) at 1uM” value is reported as 4.92%. In the case of `CC(=O)N1CCC2(CC1)CC(=O)c1cc(OCC(=O)N3CCOCC3)ccc1O2`, the “hERG current change (%, negative = inhibition) at 1uM” value is -0.507%.

`NC(=O)c1ccc(NC(=O)COC(=O)C2(c3ccccc3F)CCCC2)cc1`: the “hERG current change (%, negative = inhibition) at 1uM” value is on record as 8.88%. For the compound `Cc1cc(C)c2[nH]c(=O)c(CN(Cc3cccnc3)C(=S)NCCCN(C)C)cc2c1`, the “hERG current change (%, negative = inhibition) at 1uM” value stood at 6.73%. Turning to `Cc1nc2c(sc3nc4c(cc32)COC(C)(C)C4)c(=O)o1`, the “hERG current change (%, negative = inhibition) at 1uM” value is on record as -6.36%. For the compound `CCn1c(C)nc2cc(C(=O)NNC(=S)Nc3ccc(C)cc3)ccc21`, the “hERG current change (%, negative = inhibition) at 1uM” value amounted to 12.6%. The figure for `O=C1Nc2cc(C(=O)NCCCN3CCOCC3)ccc2S/C1=C/c1ccccc1F` is -2.65%; for `Cc1nn(C)c(C)c1/C=C1/CC2C3CC=C4CC(O)CCC4(C)C3CCC2(C)C1=O` (centres unmarked) it is -0.68%.

As to `CCC(C(=O)NCc1ccco1)N(C(=O)CNS(=O)(=O)c1ccccc1)c1ccc(F)cc1` (centres unmarked), the “hERG current change (%, negative = inhibition) at 1uM” value was 8.08%. To `COc1ccc(N2CCN(Cc3cc(OC)c(O)c([N+](=O)[O-])c3)CC2)cc1` belongs 8.51%; to `Cc1cc(C(=O)CSc2nnc(Nc3ccccc3)s2)c(C)n1CC1CCCO1` (centres unmarked), -9.24%; to `COc1ccc2nc(C(F)(F)Cl)c(C#N)c(N)c2c1`, 10.9%. In the case of `Cc1cc(C)c(C#N)c(Nc2cccc(C)c2C)n1`, the “hERG current change (%, negative = inhibition) at 1uM” value was 14.9%. The figure for `O=S(=O)(c1cccc(-c2nc3n(n2)Cc2ccccc2-3)c1)N1CCCC1` is 4.19%; for `CSCC[C@H](NC(=O)N1CCn2c1nc1ccccc12)C(=O)NC1CCCCC1` it is 9.44%; for `O=C(NCCOc1ccccc1)c1cncc(Br)c1` it is -4.97%. Turning to `Clc1ccc(SCCOCCN2CCCCC2)cc1.O=C(O)C(=O)O`, the “hERG current change (%, negative = inhibition) at 1uM” value is given as -61.1%.

As to `CC(=O)c1cc(C#N)c(SCC(=O)OC(C)(C)C)nc1C`, the “hERG current change (%, negative = inhibition) at 1uM” value is 8.25%. To `COc1ccccc1C(c1nnnn1CC1CCCO1)N1CCC(C(N)=O)CC1.Cl` (centres unmarked) belongs 1.02%; to `N#Cc1ccc(NCC(=O)Nc2ccc(S(=O)(=O)N3CCCCC3)cc2)cc1`, 9.37%; to `CN1CCN(c2oc(-c3ccccc3Cl)nc2S(=O)(=O)c2ccccc2)CC1`, -8.02%. As for `COC(=O)c1ccc(C(=O)OC)c(NC(=S)N2CCC(C(N)=O)CC2)c1`, the “hERG current change (%, negative = inhibition) at 1uM” value is reported as 12.3%.

As to `CC(=O)Nc1ccc(NC(=O)C(C)OC(=O)c2cc(S(=O)(=O)N(C)C)ccc2N2CCCC2)cc1` (centres unmarked), the “hERG current change (%, negative = inhibition) at 1uM” value came out at 4.78%. As for `CCOC(=O)C1CCN(C(=O)COC(=O)COc2ccccc2OC)CC1`, the “hERG current change (%, negative = inhibition) at 1uM” value is listed as 8.94%. For `O=C(N/N=C\c1cc2c(cc1Cl)OCO2)c1cccs1`, the “hERG current change (%, negative = inhibition) at 1uM” value was 20.5%. As to `O=C(Nc1ccccc1C(=O)NC1CC1)c1ccccc1`, the “hERG current change (%, negative = inhibition) at 1uM” value is 16.2%.

Regarding `Cn1c(SCc2c(Cl)cccc2Cl)nnc1-c1cccs1`, the “hERG current change (%, negative = inhibition) at 1uM” value is listed as -9.39%. Consider `O=C(NCc1ccco1)C(C(=O)c1ccccc1)n1ccccc1=O` (centres unmarked), for which the “hERG current change (%, negative = inhibition) at 1uM” value came out at 14.2%.

In the case of `COc1cccc(C(C(=O)NC2CCCCC2)N(C(=O)Cc2cccs2)c2ccc(-n3cnnn3)c(OC)c2)c1` (centres unmarked), the “hERG current change (%, negative = inhibition) at 1uM” value worked out at 19%.

For `CCc1nnc(NS(=O)(=O)c2ccc(Nc3ccc([N+](=O)[O-])c4nonc34)cc2)s1`, the “hERG current change (%, negative = inhibition) at 1uM” value came out at 15.3%.

`CC(C)N(Cc1ccccc1)C(=O)COC(=O)CCC(=O)c1ccc(F)cc1`: the “hERG current change (%, negative = inhibition) at 1uM” value turned out to be 3.13%. To `Cn1c(=O)c2c(SCC(=O)NCC3CCCO3)nc(CC(C)(C)C)nc2n(C)c1=O` (centres unmarked) belongs -0.562%; to `CCS(=O)(=O)N1CCN=C1SCc1cccc(F)c1`, 11.7%; to `CCN(CC(=O)Nc1cccc(C(C)=O)c1)S(=O)(=O)c1ccccc1`, 4.85%.

Turning to `c1ccc([C@H]2CC3C[C@@H](c4ccccc4)N2O3)cc1`, the “hERG current change (%, negative = inhibition) at 1uM” value was determined as 7.81%. Consider `Cl.Nc1ccc(Oc2cc(N)cc(Oc3ccccc3)c2)cc1`, for which the “hERG current change (%, negative = inhibition) at 1uM” value turned out to be 15.8%.

With `COc1ccc(NS(=O)(=O)c2ccc(NC(=O)c3ccccc3Br)cc2)nn1`, the “hERG current change (%, negative = inhibition) at 1uM” value came to 8.74%. For `CCCCC/C=C\C/C=C\C/C=C\C/C=C\CCCC(=O)O`, the “hERG current change (%, negative = inhibition) at 1uM” value stood at 21.2%. Regarding `CCc1cccc(NS(=O)(=O)c2ccc3c(c2)n(C)c(=O)n3C)c1`, the “hERG current change (%, negative = inhibition) at 1uM” value was 19.3%. To `COc1ccc(NC(=O)c2ccccc2-c2ccccc2C(=O)O)cc1` belongs 5.69%; to `CCOc1ccccc1NC(=O)CSc1nncc2ccccc12`, 1.9%; to `Cc1nc2ccccc2c(=O)n1/N=C/c1ccccc1Cl`, 12.2%. The figure for `CC(NC(=O)C1CCCCC1)C(c1cccs1)N1CCN(C)CC1` (centres unmarked) is 6.45%; for `CCOC(=O)N1CCN(C(=O)C2c3cc(OC)c(OC)cc3C(=O)N3CCc4ccccc4C23)CC1` (centres unmarked) it is 13.9%; for `COc1cccc(N2CC(C(=O)Nc3nnc(SCC(=O)c4ccccc4)s3)CC2=O)c1` (centres unmarked) it is 7.45%. On to `O=C(NCN1CCc2ccccc2C1)c1ccccc1`, for which the “hERG current change (%, negative = inhibition) at 1uM” value was -4%. Regarding `Cc1ccc2nc(SCC(=O)NCc3ccccc3)nc(=O)n2c1`, the “hERG current change (%, negative = inhibition) at 1uM” value was -1.55%.

As to `COc1ccc(N(C(=O)c2snc(C(N)=O)c2N)C(C(=O)NC2CCCC2)c2ccc(F)cc2)c(OC)c1` (centres unmarked), the “hERG current change (%, negative = inhibition) at 1uM” value stood at 4.5%.
